According to the RNAGym collection of RNA variant scans (doi:10.7554/elife.90254):
Read counts are not given, so values of variants with three or more changes are uncertain.

B1: LINE1-full (parent)
chain: UACGUAGGUGGUUUUCCCCUGAUAGUGCUAAGGGGGCCUGGAAGUUUGGACUGGGCAGAGCUCAACACAGCGUGGCAAAGUGGCUGUGGCUAGACUGCCUCUCUGGAUUCCUCGUCACUCAGCAGGGCAUCUCUGAGAGAAAUGCC

Variants of: B1
Experiment: self-cleavage, relative activity (ratio to wild type); higher = more cleavage; in vitro, sequencing; the parent is a self-cleaving ribozyme
U12C U87C U109A A142G showed a self-cleavage of 0.
U13A G32A U87A A92C U96C A138G gave a self-cleavage of 0.
U13C A31U U47A A107G A136G showed a self-cleavage of 0.56.
With U13C A64G G139A the self-cleavage was 0.19.
U13A U46C U112C A141G gave a self-cleavage of 1.87.
In the case of U12G A107G C110U A117G, the self-cleavage is reported as 1.24.
U13A U15C G83A showed a self-cleavage of 0.37.
For U13A U45C U91A U104A A136U, the self-cleavage was 0.72.
U13A A129G A141G gave a self-cleavage of 1.15.
U12G G54A A140G showed a self-cleavage of 0.51.
Work on U13C A22G A42U U109C A117U U119A yielded a self-cleavage of 1.09.
U12G U108C A141G gave a self-cleavage of 0.
Work on U12C U96G U115A yielded a self-cleavage of 0.47.
Variant U13A U102C A124U has a self-cleavage of 0.68.
With U13C A43U A57G the self-cleavage was 1.26.
Variant U12G U14C U119C has a self-cleavage of 1.31.
With U12G U52C U62C A65G G126U the self-cleavage was 0.
U12G A42G G60A showed a self-cleavage of 0.
In the case of U13A A57G A69U C71U, the self-cleavage is reported as 0.01.
Variant U12G A59G U73A has a self-cleavage of 0.27.
For U13C A67G U104C A142G, the self-cleavage was 0.
In the case of U12C U73C U130C, the self-cleavage is reported as 0.98.
Work on U13A A42G A78G A138G A142G yielded a self-cleavage of 1.34.
In the case of U12G G74A A136G, the self-cleavage is reported as 0.84.
U13C A43G A65U U73A A78G A138G A141G showed a self-cleavage of 0.13.
Work on U12C U45C U81C yielded a self-cleavage of 2.53.
U12C U52A A57U A92U U115G showed a self-cleavage of 0.11.
U13C A43G U47C A136G gave a self-cleavage of 0.33.
U13A A57G U109G gave a self-cleavage of 0.
U13C A42G A50G U81A U134A showed a self-cleavage of 0.79.
In the case of U13C A22G U91C, the self-cleavage is reported as 0.
With U13C A30G A50U G126A the self-cleavage was 1.75.
In the case of U12C U45A C84G C98G, the self-cleavage is reported as 0.07.
In the case of U13A U62C U104A, the self-cleavage is reported as 0.08.
Variant U13A A67G U115C A138G has a self-cleavage of 1.48.
For U12G U20A A42G A121G, the self-cleavage was 0.
Work on U13C A43U A129G yielded a self-cleavage of 0.69.
In the case of U12G C18U U45C, the self-cleavage is reported as 1.1.
U12C U81A U143A gave a self-cleavage of 2.56.
U12G U62C U104A A117G showed a self-cleavage of 0.
U12G A57G U62C A107G U112A gave a self-cleavage of 0.46.
In the case of U12G U23C A57G G74A U85A G137A, the self-cleavage is reported as 0.1.
U13A U26C U87C A136U gave a self-cleavage of 0.54.
Variant U12C U87A U119C A121U has a self-cleavage of 0.2.
Work on U13C A67C G127A yielded a self-cleavage of 0.09.
For U12C U47A U81A C90A, the self-cleavage was 0.1.
For U12G U26C G54U U96C A141G, the self-cleavage was 0.
U13C A42G U100C A138G gave a self-cleavage of 0.63.
Variant U13C A43U A136G has a self-cleavage of 1.76.
U12G U96A U134G A140G gave a self-cleavage of 0.21.
Variant U12C U81G U119C A140U has a self-cleavage of 1.02.
Variant U13C A67G U104C A121G has a self-cleavage of 0.
Work on U12G U15A A64G U109A A136C A142G yielded a self-cleavage of 0.26.
U12G A30G U109A showed a self-cleavage of 1.62.
In the case of U12G U14A A57U U62C, the self-cleavage is reported as 0.06.
Work on U12G U46A U143C yielded a self-cleavage of 1.31.
Work on U12C U46C C95A yielded a self-cleavage of 0.12.
With U13C A59C U85A the self-cleavage was 0.22.
With U13A U87A U108C the self-cleavage was 0.08.
For U13A A124G A129G G144A, the self-cleavage was 1.41.
For U13A A43G U46A, the self-cleavage was 1.01.
U13A U23C A78G A94G A136G gave a self-cleavage of 0.
Work on U13A U29A A140G U143A yielded a self-cleavage of 0.56.
In the case of U12G A30G U52A U102C U112C, the self-cleavage is reported as 1.02.
U13C A67G C95A gave a self-cleavage of 0.1.
With U12C U81A U100C the self-cleavage was 2.71.
With U13C A43G A67U U100C A140G the self-cleavage was 0.37.
With U13C A43G A92G U134G the self-cleavage was 0.16.
U13A U20C U130C showed a self-cleavage of 0.74.
U13A A78G U132A showed a self-cleavage of 1.57.
Work on U13C A77G U102A yielded a self-cleavage of 0.84.
With U13A U14C U26C G34A A43G U87A U134C A136G the self-cleavage was 0.18.
Variant U13C A30U A50C has a self-cleavage of 0.31.
For U13C A59G A78G U96C A142G, the self-cleavage was 0.
For U13A U23C A57U, the self-cleavage was 0.21.
In the case of U13C A42G A136G, the self-cleavage is reported as 1.54.
For U13C A67U U102A, the self-cleavage was 0.29.
Work on U12G U14C A22G G40C A77U yielded a self-cleavage of 1.24.
Variant U13C A77U U102G has a self-cleavage of 1.24.
U13A A65U G89U showed a self-cleavage of 0.02.
In the case of U13A C38U U39C A94G C116U C123U U134G, the self-cleavage is reported as 0.13.
With U13C A22G U23C G53A U85C U108C the self-cleavage was 0.66.
In the case of U13A U14C A31U G48A U96C U104A, the self-cleavage is reported as 0.07.
U12C U47A U132C showed a self-cleavage of 0.88.
